{"source": "PubChem BioAssay AID1460", "about": "(National Center for Advancing Translational Sciences (NCATS), 2008)", "note": "Among all 270,000 compounds or so, about 5,800 (2.1%) were called active. Inconclusive means that the source gave no clear call. Such entries were picked first, then a sample of the others. Calls come from the whole dose curve; as a rule, active = well fitted inhibition curve with a large enough effect; inconclusive = small, poorly fitted or top-dose-only effect; inactive = flat fitted curve, though single readings scatter. A potency beside an inconclusive call is a rough fit, not a confirmed value. Potency is the fitted concentration of half-maximal effect; tags give direction and shape of the fitted curve."}
{"molecular_target": "Microtubule-associated protein tau (Homo sapiens) (UniProt P10636)", "sequence (P10636 whole entry, looked up, the tested form may be a part)": "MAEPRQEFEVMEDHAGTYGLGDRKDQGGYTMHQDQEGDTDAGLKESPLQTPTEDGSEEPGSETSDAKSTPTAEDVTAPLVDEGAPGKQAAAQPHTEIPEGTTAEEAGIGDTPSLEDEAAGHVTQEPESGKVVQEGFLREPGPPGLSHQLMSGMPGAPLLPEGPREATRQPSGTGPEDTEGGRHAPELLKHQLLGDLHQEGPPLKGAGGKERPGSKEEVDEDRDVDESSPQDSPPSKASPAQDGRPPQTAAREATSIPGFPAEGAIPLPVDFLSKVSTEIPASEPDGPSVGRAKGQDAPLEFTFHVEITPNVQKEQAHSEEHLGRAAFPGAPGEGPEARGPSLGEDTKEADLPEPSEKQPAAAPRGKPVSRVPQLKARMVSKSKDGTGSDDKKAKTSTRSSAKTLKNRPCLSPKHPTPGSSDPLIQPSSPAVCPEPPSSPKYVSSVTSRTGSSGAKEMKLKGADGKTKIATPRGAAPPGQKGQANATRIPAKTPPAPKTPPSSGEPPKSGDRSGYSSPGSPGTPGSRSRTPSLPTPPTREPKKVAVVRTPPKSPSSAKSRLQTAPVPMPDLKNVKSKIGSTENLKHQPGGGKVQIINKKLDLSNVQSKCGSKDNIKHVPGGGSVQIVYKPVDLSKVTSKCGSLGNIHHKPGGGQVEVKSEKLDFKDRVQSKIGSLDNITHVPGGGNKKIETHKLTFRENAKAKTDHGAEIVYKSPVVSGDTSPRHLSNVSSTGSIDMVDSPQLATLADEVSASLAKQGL", "assay": "qHTS for Inhibitors of Tau Fibril Formation, Thioflavin T Binding; note: nearly all actives have a fitted effect of over 55% in size", "conditions": "recombinant tau K18 P301L (four-repeat tau fragment), heparin-induced fibrillization, ThT fluorescence; series mostly up to 57.4 µM", "how_it_was_run": "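Aggregation was driven by heparin (20 uM final) acting on recombinant tau […] bearing P301L in 100 mM sodium acetate pH 7; fibrils were detected with Thioflavin T.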"}
{"smiles": "Cc1nc(S/C(=C\\c2ccc(OCc3ccccc3Cl)cc2)C(=O)O)n[nH]1", "Potency": "inconclusive: 3.55 µM [inhibitor, full curve]"}
{"smiles": "Nc1ccc2oc3ccc(N)cc3c(=O)c2c1", "Potency": "active: 14.1 µM"}
{"smiles": "Cc1ccc(Cl)cc1NC(=O)C(=O)NCC(c1cccnc1)N1CCc2ccccc21", "note": "(stereo unspecified)", "Potency": "inactive"}
{"smiles": "O=C(CCS(=O)(=O)c1cccc2nsnc12)Nc1ccc(F)cc1", "Potency": "inconclusive: 20 µM [inhibitor, single point]"}
{"smiles": "CCc1ccc(-n2c(=O)c3c4c(sc3n(CC(=O)c3ccc(Cl)cc3)c2=O)CCC4)cc1", "Potency": "inactive"}
{"smiles": "O=c1c2ccccc2nc2c3ccccc3c(NCCN3CCOCC3)nn12", "Potency": "inactive"}
{"smiles": "COc1ccc2oc(-c3ccc(C)c(NC(=O)COc4cc(C)cc(C)c4)c3)nc2c1", "Potency": "inconclusive: 3.55 µM [inhibitor, full curve]"}
{"smiles": "CCC(c1nnnn1Cc1ccco1)N(CCc1ccccc1)Cc1cc2cc(C)ccc2[nH]c1=O", "note": "(stereo unspecified)", "Potency": "inconclusive: 15.8 µM [inhibitor, partial curve]"}
{"smiles": "CCN(CC)c1ccc2cc(C(=O)Nc3ccc(-n4cnnn4)c(OC)c3)c(=O)oc2c1", "Potency": "inconclusive: 0.794 µM [activator, full curve, poor fit]"}
{"smiles": "Cc1ccc(Cl)cc1N1CCN(CCNC(=O)Nc2ccccc2Cl)CC1", "Potency": "inconclusive: 8.91 µM [inhibitor, full curve]"}
{"smiles": "CCN(CCCNS(=O)(=O)c1ccc2c(c1)CCN2C(C)=O)c1cccc(C)c1", "Potency": "inconclusive: 12.6 µM [inhibitor, single point]"}
{"smiles": "Cc1cccn2c(=O)c(C=O)c(N3CCCCCC3)nc12", "Potency": "inconclusive: 44.7 µM [inhibitor, single point]"}
{"smiles": "O=C(O)C(C(=O)/C=C/c1ccco1)=C1SCCS1", "Potency": "active: 15.8 µM"}
{"smiles": "Cc1cccc(-n2c(CNC(=O)c3ccc(S(=O)(=O)N4CCCC4)cc3)n[nH]c2=S)c1", "Potency": "inactive"}
{"smiles": "COCCN(C(=S)Nc1ccc(C)cc1C)C(C)c1ccco1", "note": "(stereo unspecified)", "Potency": "inactive"}
{"smiles": "c1ccc(CN(Cc2ccco2)C(c2ccncc2)c2nnnn2C2CCCC2)cc1", "note": "(stereo unspecified)", "Potency": "inconclusive: 28.2 µM [inhibitor, single point]"}
{"smiles": "Cc1ccn2c(=O)cc(COc3ccc(NC(=O)c4ccccc4F)cc3)nc2c1", "Potency": "inconclusive: 1.26 µM [inhibitor, full curve]"}
{"smiles": "COc1ccc(C(=O)CSc2c(C(C)C)cnc3c2c(=O)n(C)c(=O)n3C)cc1", "Potency": "inactive"}
{"smiles": "COc1ccc2[nH]c(C(=O)Nc3cccc(C)n3)cc2c1", "Potency": "inconclusive: 2.82 µM [inhibitor, full curve]"}
{"smiles": "O=C(CSc1ccccc1)Nc1ccc(N2CCN(c3ccccc3)CC2)c(F)c1", "Potency": "inconclusive: 0.794 µM [inhibitor, full curve, poor fit]"}
{"smiles": "COc1cc2[nH]c(=O)n(CCCC(=O)N3CCN(c4cccc(C(F)(F)F)c4)CC3)c(=O)c2cc1OC", "Potency": "inconclusive: 10 µM [inhibitor, partial curve]"}
{"smiles": "Brc1ccc(/C=N/Nc2ccc3ccccc3n2)cc1", "Potency": "inconclusive: 10 µM [inhibitor, partial curve]"}
{"smiles": "O=C(CSc1ccccc1)Nc1ccc(-c2nc3ccccc3[nH]2)cc1", "Potency": "inconclusive: 10 µM [activator, partial curve]"}
{"smiles": "C/C(=C/C(=O)Nc1cccc(F)c1)N1CCCC1", "Potency": "inconclusive: 44.7 µM [inhibitor, single point]"}
{"smiles": "CC(NC(=O)c1sc2cc([N+](=O)[O-])ccc2c1Cl)C(C)(C)C", "note": "(stereo unspecified)", "Potency": "active: 22.4 µM"}
{"smiles": "CN1C(=O)C(O)(CC(=O)c2ccc3c(c2)OCO3)c2ccccc21", "note": "(stereo unspecified)", "Potency": "inactive"}
{"smiles": "COc1ccc(CCNC(=O)c2ccc(CNS(=O)(=O)c3cc(C)ccc3C)cc2)cc1OC", "Potency": "inconclusive: 20 µM [inhibitor, partial curve]"}
{"smiles": "CCN(CC)C(=O)c1sc(NC(=O)Cc2ccccc2)c(C#N)c1C", "Potency": "inactive"}
{"smiles": "Cc1cccc(N2CCN(C(=O)CCS(=O)(=O)c3ccc(Br)cc3)CC2C)c1", "note": "(stereo unspecified)", "Potency": "inconclusive: 15.8 µM [inhibitor, partial curve]"}
{"smiles": "CC1(C)C2CC[C@@]1(C)C(=O)C2", "Potency": "inconclusive: 3.98 µM [inhibitor, partial curve, poor fit]"}
{"smiles": "COc1cccc(/C=N/NC(N)=S)c1OCc1ccccc1Cl", "Potency": "inactive"}
{"smiles": "C=CCSc1nc2ccccc2n1C(=O)/C=C/c1ccc(OC)c(OC)c1", "Potency": "active: 14.1 µM"}
{"smiles": "O=C(NCCCCNC(=O)c1ccccn1)c1ccccn1", "Potency": "inactive"}
{"smiles": "COc1ccccc1NC(=O)c1sc2nc3c(cc2c1N)CCCCCC3", "Potency": "inconclusive: 8.91 µM [inhibitor, partial curve]"}
{"smiles": "C=C1C[C@]23CC[C@H]4C(CO)(CO)C[C@@H](O)C[C@@]4(C)[C@@H]2CC[C@H]1C3", "Potency": "inactive"}
{"smiles": "Cc1ccc(-n2nnc(C(=O)Nc3cc(F)ccc3F)c2C)cc1F", "Potency": "inactive"}
{"smiles": "COc1ccc(N2CCN(CCCNC(=O)CC3Oc4ccc(C)cc4NC3=O)CC2)cc1", "note": "(stereo unspecified)", "Potency": "inconclusive: 17.8 µM [inhibitor, single point]"}
{"smiles": "CCc1cccc2c(C(=O)COC(=O)c3nn(C)c(=O)c4ccccc34)c[nH]c12", "Potency": "inconclusive: 10 µM [inhibitor, partial curve]"}
{"smiles": "CCN(CC)c1ccc(NC(=O)c2ccc(Br)o2)c(C)c1", "Potency": "inconclusive: 12.6 µM [inhibitor, partial curve]"}
{"smiles": "Cc1nc2ccccc2nc(C)c1=NOCc1cccc(Cl)c1", "Potency": "inconclusive: 39.8 µM [inhibitor, single point]"}
{"smiles": "Cc1ccc(CN(Cc2ccco2)C(=O)COc2ccc(C(C)C)cc2)cc1", "Potency": "inconclusive: 31.6 µM [inhibitor, single point]"}
{"smiles": "COc1cc(-c2noc(-c3ccco3)n2)cc(OC)c1OC", "Potency": "inconclusive: 28.2 µM [inhibitor, single point]"}
{"smiles": "N#Cc1ccsc1NC(=O)CN1CCN(c2ccccc2)CC1", "Potency": "inactive"}
{"smiles": "Cc1cc(NC(=O)C2=C(O)c3ccccc3S(=O)(=O)N2C)no1", "Potency": "inactive"}
{"smiles": "COC(=O)c1cc(Cl)c(NC(=O)c2ccco2)cc1OC", "Potency": "inconclusive: 8.91 µM [inhibitor, full curve, poor fit]"}
{"smiles": "O=C1C=Cc2ccccc2/C1=C/c1[nH]c(=O)[nH]c1O", "Potency": "inactive"}
{"smiles": "CCn1c(N2CCN(C(=S)Nc3ccc(OC)cc3)CC2)nc2ccccc21", "Potency": "inconclusive: 20 µM [inhibitor, partial curve]"}
{"smiles": "CS(=O)(=O)NCCNc1cc(Cl)ccc1[N+](=O)[O-]", "Potency": "inconclusive: 35.5 µM [inhibitor, single point]"}
{"smiles": "CN(C)CCCn1c(=O)n(CCc2ccccc2)c(=O)c2c3c(sc21)CCCCC3", "Potency": "inactive"}
{"smiles": "COCCn1nnnc1C(c1cc2cc(OC)c(OC)cc2[nH]c1=O)N1CCN(c2ccc(O)cc2)CC1", "note": "(stereo unspecified)", "Potency": "inactive"}
{"smiles": "NC(=O)CC(NC(=O)Cc1cccc2ccccc12)c1ccc(N2CCC(Br)CC2)c([N+](=O)[O-])c1", "note": "(stereo unspecified)", "Potency": "inconclusive: 12.6 µM [inhibitor, partial curve, poor fit]"}
{"smiles": "Cc1cccc(N2CCN(c3cccc(C)c3)C2c2cccnc2)c1", "Potency": "inconclusive: 28.2 µM [inhibitor, partial curve]"}
{"smiles": "O=C(CN1CCN(c2ccccc2)CC1)N1CCN(c2ccccc2)CC1", "Potency": "inconclusive: 22.4 µM [inhibitor, partial curve]"}
{"smiles": "CCN1CCN(Cc2ccc(NC(=O)c3ccc(C)c(NC(=O)C4=NN(c5ccccc5)C(=O)C4)c3)cc2C(F)(F)F)CC1", "Potency": "inconclusive: 25.1 µM [inhibitor, partial curve, poor fit]"}
{"smiles": "O=C(c1ccco1)N1CCN=C1SCc1ccc(F)cc1", "Potency": "inconclusive: 17.8 µM [inhibitor, partial curve]"}
{"smiles": "c1cc(-c2sc(-c3ccncc3)c(-c3ccncc3)c2-c2ccncc2)ccn1", "Potency": "inconclusive: 10 µM [inhibitor, partial curve]"}
{"smiles": "O=C(NCc1ccc2c(c1)OCO2)c1cccc2c1C(=O)N(C1CCCCC1)C2", "Potency": "inactive"}
{"smiles": "CCn1cc(C(=O)N2CCN(c3ccc(C(C)=O)cc3)CC2)c2cc(OC)c(OC)cc2c1=O", "Potency": "inactive"}
{"smiles": "O=C(Nc1nnc(-c2ccco2)o1)c1cccc(N2C(=O)CCC2=O)c1", "Potency": "inactive"}
{"smiles": "CCOc1ccccc1OCCCOc1ccc(C)cc1Br", "Potency": "inconclusive: 22.4 µM [inhibitor, partial curve]"}
{"smiles": "Cc1ccc(C)c2nc(N3CCCC3)c(C#N)cc12", "Potency": "inconclusive: 39.8 µM [inhibitor, single point]"}
{"smiles": "Cc1ccccc1CN1C(=O)C(O)(CC(=O)c2ccncc2)c2ccccc21", "note": "(stereo unspecified)", "Potency": "inconclusive: 25.1 µM [inhibitor, single point]"}
{"smiles": "Cc1nc(NCCN2CCOCC2)c2oc3ccccc3c2n1", "Potency": "inactive"}
{"smiles": "CCC(=O)C1=C(c2cccc(OC)c2)N(C(=O)CC)n2c(nnc2C2CCCCC2)S1", "Potency": "inconclusive: 22.4 µM [inhibitor, single point]"}
{"smiles": "O=c1oc2cc(OCc3ccc(F)cc3F)ccc2cc1-c1ccccn1", "Potency": "inconclusive: 3.55 µM [inhibitor, full curve]"}
{"smiles": "COc1cc(/C=N/NC(=O)c2cc(C)n(-c3ccc(F)cc3)c2C)cc(OC)c1O", "Potency": "inconclusive: 17.8 µM [inhibitor, partial curve]"}
{"smiles": "Cc1cc(C(C)(C)CC(C)(C)C)ccc1OCCOCC[N+](C)(C)Cc1ccccc1", "Potency": "inconclusive: 22.4 µM [inhibitor, partial curve]"}
{"smiles": "COc1ccc(OC)c(CCNC(=O)c2csc3c2CCCCC3)c1", "Potency": "inconclusive: 39.8 µM [inhibitor, single point]"}
{"smiles": "O=C(Nc1ccccc1)c1ccc(Br)o1", "Potency": "inactive"}
{"smiles": "CCOc1cccc(C2c3c(-c4cc(C)ccc4O)n[nH]c3C(=O)N2Cc2ccco2)c1", "note": "(stereo unspecified)", "Potency": "inactive"}
{"smiles": "CCOC(=O)C(C)NC(=O)c1c(C)oc2ncn(CC(C)C)c(=O)c12", "note": "(stereo unspecified)", "Potency": "inactive"}
